{
  "source": "PubChem BioAssay AID1721",
  "about": "(National Center for Advancing Translational Sciences (NCATS), 2009)",
  "note": "Hit rate of the full screen: of about 290,000 compounds, about 1,100 (0.38%) were called active. The inconclusive results got no clear call from the source; some entries with a clear call stand among them for comparison. The call rests on the fitted dose curve; in most records, active means well fitted inhibition curve with a large enough effect; inconclusive means small, poorly fitted or top-dose-only effect, or another doubt; inactive means no such curve, though single readings can be large or run the other way. Potencies beside an inconclusive call are fits to weak or partial responses and may not hold up. Potency means the concentration at half of the fitted maximal effect; tags describe the fitted curve by direction and shape.",
  "data": [
    {"target": "Pyruvate kinase (Leishmania mexicana) (UniProt Q27686)", "sequence (Q27686 whole entry, looked up)": "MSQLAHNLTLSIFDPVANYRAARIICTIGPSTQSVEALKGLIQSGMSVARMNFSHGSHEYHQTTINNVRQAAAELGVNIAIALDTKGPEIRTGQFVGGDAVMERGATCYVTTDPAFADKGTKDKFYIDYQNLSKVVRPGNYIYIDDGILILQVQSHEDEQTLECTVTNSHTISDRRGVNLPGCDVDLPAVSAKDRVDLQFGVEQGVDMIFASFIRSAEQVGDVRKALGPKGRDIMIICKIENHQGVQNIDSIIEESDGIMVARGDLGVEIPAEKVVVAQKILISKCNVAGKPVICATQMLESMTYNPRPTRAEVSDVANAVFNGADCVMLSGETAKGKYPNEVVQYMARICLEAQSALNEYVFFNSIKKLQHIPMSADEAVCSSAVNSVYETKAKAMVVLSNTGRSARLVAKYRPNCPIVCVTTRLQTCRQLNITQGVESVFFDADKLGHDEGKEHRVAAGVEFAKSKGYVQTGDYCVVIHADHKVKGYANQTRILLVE", "test": "qHTS Assay for Inhibitors of Leishmania Mexicana Pyruvate Kinase (LmPK)", "conditions": "purified LmPK, Kinase-Glo ATP luminescence, 1 h; series mostly up to 57.5 µM", "outline": "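Pyruvate kinase activity monitored as ATP production (luciferase luminescence). Conditions: 0.1 nM enzyme, 0.5 mM PEP, 0.1 mM ADP, 1 h, RT; normalized against uninhibited and no-enzyme wells.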", "values": [
      {"smiles": "COc1ccc(C=C2C(=O)c3ccccc3C2=O)cc1O", "Potency": "inconclusive: 8.91 µM [falling, partial curve]"},
      {"smiles": "O=C(NCCc1ccc(F)cc1)c1cc(=O)c2ccccc2o1", "Potency": "inactive"},
      {"smiles": "Cc1ccsc1C(=O)OCc1csc(-c2ccccc2)n1", "Potency": "active: 15.8 µM"},
      {"smiles": "COC(=O)Nc1nnc(-c2ccc(OC)cc2)s1", "Potency": "inconclusive: 25.1 µM [falling, partial curve]"},
      {"smiles": "CCN1/C(=C\\C=C\\C2=[N+](CC)c3ccccc3C2(C)C)C(C)(C)c2ccccc21", "Potency": "active: 10 µM"},
      {"smiles": "Cc1occc1C(=O)NNC(=O)c1ccccc1F", "Potency": "inconclusive: 20 µM [falling, partial curve]"},
      {"smiles": "O=C(NC(=S)N1CCCCCC1)c1ccccc1Cl", "Potency": "inactive"},
      {"smiles": "COc1ccc(C(=O)NC(=S)N2CCCCC2c2cccnc2)cc1OC", "note": "(stereo not given)", "Potency": "inconclusive: 35.5 µM [falling, single point]"},
      {"smiles": "N#Cc1c2n(c3c(=S)nc[nH]c13)CCCCC2", "Potency": "active: 22.4 µM"},
      {"smiles": "CCOc1ccc(N(CC(=O)Nc2cccc(OC)c2)S(C)(=O)=O)cc1", "Potency": "inactive"},
      {"smiles": "COc1ccccc1C(=O)NNC(=O)c1cccc(F)c1", "Potency": "inconclusive: 22.4 µM [falling, single point]"},
      {"smiles": "Clc1ccc(-c2nnc(SCc3ccon3)o2)c(Cl)c1", "Potency": "inconclusive: 31.6 µM [falling, single point]"},
      {"smiles": "Oc1ccc(N2CCN(Cc3nc4ccccc4[nH]3)CC2)cc1", "Potency": "inconclusive: 28.2 µM [falling, single point]"},
      {"smiles": "CCn1c(-c2ccc(C)cc2)n[nH]c1=S", "Potency": "inconclusive: 8.91 µM [falling, partial curve]"},
      {"smiles": "CCC(=O)Oc1ccc(C(=O)Nc2ccc3c(c2)OCO3)cc1", "Potency": "inconclusive: 20 µM [falling, partial curve]"},
      {"smiles": "C/C(=N\\NC(=O)c1cc(C(C)C)[nH]n1)c1ccco1", "Potency": "inconclusive: 15.8 µM [falling, partial curve]"},
      {"smiles": "Cc1nn(CCO)c2ncc(C(=O)c3cc(F)ccc3O)cc12", "Potency": "inactive"},
      {"smiles": "CCOC(=O)N1CCC(NC(=O)CSc2cc(=O)n(C)c3ccccc23)CC1", "Potency": "inactive"},
      {"smiles": "COc1cccc(C=Nc2ccc(N3CCOCC3)cc2)c1O", "Potency": "inconclusive: 35.5 µM [falling, single point]"},
      {"smiles": "O=C(CCNC(=O)c1ccccc1Cl)N/N=C\\c1ccc(O)cc1", "Potency": "inactive"},
      {"smiles": "Cc1cc(-c2n[nH]c(=S)n2Cc2ccco2)nn1C", "Potency": "inconclusive: 31.6 µM [falling, single point]"},
      {"smiles": "COc1ccc(Cl)cc1-c1n[nH]c(=S)n1Cc1ccccc1", "Potency": "inconclusive: 31.6 µM [falling, single point]"},
      {"smiles": "Cc1cccc(-n2ncc3c(N4CCOCC4)ncnc32)c1", "Potency": "active: 25.1 µM"},
      {"smiles": "COc1ccc(OC2CCN(S(=O)(=O)c3cccc(F)c3)CC2)cc1", "Potency": "inactive"},
      {"smiles": "COC(=O)c1ccc(/C=N/Nc2nc(-c3ccccc3)cs2)cc1", "Potency": "inactive"},
      {"smiles": "Cc1ccc([N+](=O)[O-])cc1NC(=O)c1cccs1", "Potency": "inactive"},
      {"smiles": "Cc1nc(NC(=O)c2ccc(Br)o2)sc1C", "Potency": "active: 15.8 µM"},
      {"smiles": "O=C(Nc1ccccn1)c1ccc2ccccc2n1", "Potency": "inconclusive: 22.4 µM [falling, partial curve]"},
      {"smiles": "C[n+]1ccn(CC(=O)c2cccs2)c1", "Potency": "inactive"},
      {"smiles": "CNS(=O)(=O)/C=C/c1ccccc1", "Potency": "inactive"},
      {"smiles": "COc1cc(Cl)c(C)cc1NC(=O)COC(=O)c1cc[n+]([O-])cc1", "Potency": "active: 2.82 µM"},
      {"smiles": "COC(=O)CSc1nc(C)cc(C(F)(F)F)c1C#N", "Potency": "inactive"},
      {"smiles": "COc1ccc(OC)c(C2CC(=O)N3CN(c4ccccc4F)CSC3=C2C#N)c1", "note": "(stereo not given)", "Potency": "inactive"},
      {"smiles": "c1ccc2sc(NCC3CCCO3)nc2c1", "note": "(stereo not given)", "Potency": "inconclusive: 14.1 µM [falling, partial curve]"},
      {"smiles": "Clc1ccc2c(c1)C1OCCC1C(c1ccco1)N2", "note": "(stereo not given)", "Potency": "inconclusive: 39.8 µM [falling, single point]"},
      {"smiles": "Cc1ccc(OCc2nc3ccccc3[nH]2)cc1", "Potency": "inconclusive: 28.2 µM [falling, single point]"},
      {"smiles": "O=C(Nc1cccc(C(=O)O)c1)Nc1ccccc1Cl", "Potency": "inconclusive: 22.4 µM [falling, single point]"},
      {"smiles": "c1ccc(OCc2nc3ccccc3[nH]2)cc1", "Potency": "active: 11.2 µM"},
      {"smiles": "COc1ccccc1C(=O)NC(=O)Nc1cccc(Cl)c1", "Potency": "inactive"},
      {"smiles": "CCN(CCCNC(=O)CCc1nc(-c2ccc(OC)cc2)no1)c1cccc(C)c1", "Potency": "inactive"},
      {"smiles": "COCCn1nnnc1CN(Cc1cccnc1)Cc1cc2cc(OC)ccc2[nH]c1=O", "Potency": "inactive"},
      {"smiles": "COc1ccc(C(=O)Nc2ccccc2C(=O)N/N=C/c2ccccn2)cc1OC", "Potency": "inconclusive: 14.1 µM [falling, partial curve]"},
      {"smiles": "CCn1cnc2cc(NCc3nc4ccccc4n3C)ccc21", "Potency": "inconclusive: 15.8 µM [falling, partial curve]"},
      {"smiles": "CN(C)c1ccc(Nc2c3c4c(cccc4n(C)c2=O)C(=O)c2ccccc2-3)cc1", "Potency": "inconclusive: 22.4 µM [falling, single point]"},
      {"smiles": "COc1nc(C)ccc1-c1noc(-c2ccccn2)n1", "Potency": "active: 22.4 µM"},
      {"smiles": "COC(=O)c1sccc1NC(=O)Nc1ccccc1F", "Potency": "active: 14.1 µM"},
      {"smiles": "COc1ccc(OC)c(NC(=O)CSc2ccc(-c3ccco3)nn2)c1", "Potency": "inactive"},
      {"smiles": "COc1cc(S(=O)(=O)N2CCOCC2)ccc1NC(=O)COC(=O)CC12CC3CC(CC(C3)C1)C2", "Potency": "inactive"},
      {"smiles": "Cc1cccc(-n2c(-c3csc(C)c3C)n[nH]c2=S)c1", "Potency": "active: 11.2 µM"},
      {"smiles": "Fc1ccccc1/C=N/n1cc(-c2ccccc2)[nH]c1=S", "Potency": "inconclusive: 3.55 µM [falling, full curve]"},
      {"smiles": "O=S(=O)(Nc1ccc(O)c2ccccc12)c1ccc(Br)cc1", "Potency": "inconclusive: 8.91 µM [falling, partial curve]"},
      {"smiles": "Cn1c(NC(=O)c2cccnc2)nc2ccccc21", "Potency": "inconclusive: 15.8 µM [falling, partial curve]"},
      {"smiles": "O=C(/C=C/Nc1cccc(F)c1)c1ccco1", "Potency": "inconclusive: 22.4 µM [falling, single point]"},
      {"smiles": "O=C(Nc1ccc(Cl)cn1)c1ccccc1F", "Potency": "active: 22.4 µM"},
      {"smiles": "Cc1ccc2c(c1)COc1c3ccc(C(=O)O)cc3nn1-2", "Potency": "inconclusive: 25.1 µM [falling, partial curve]"}
    ]}
  ]
}
